Results reported in PubChem BioAssay AID1468 (National Center for Advancing Translational Sciences (NCATS), 2008).
Several values for one entry are separate records, joined by “and”; a condition that tells them apart may be missing. Identical values can stand only once. About 1,100 (0.39%) of roughly 280,000 compounds were called active. The shares of active, inactive and inconclusive entries below differ from those in the screen. Calls follow the shape of the dose curve; as a rule, active = well fitted inhibition curve with a large enough effect; inconclusive = small, poorly fitted or top-dose-only effect, or effect the other way; inactive = flat fitted curve, though single readings scatter. Where the call is inconclusive, the potency comes from a doubtful curve fit.

These compounds were tested against Microtubule-associated protein tau (Homo sapiens) (UniProt P10636) (assay: qHTS for Inhibitors of Tau Fibril Formation, Fluorescence Polarization). Conditions: K18 P301L tau heparin fibrillization, Alexa594 FP, 6 h; series mostly up to 57.7 µM.
Chain of UniProt P10636 (P10636 whole entry, looked up): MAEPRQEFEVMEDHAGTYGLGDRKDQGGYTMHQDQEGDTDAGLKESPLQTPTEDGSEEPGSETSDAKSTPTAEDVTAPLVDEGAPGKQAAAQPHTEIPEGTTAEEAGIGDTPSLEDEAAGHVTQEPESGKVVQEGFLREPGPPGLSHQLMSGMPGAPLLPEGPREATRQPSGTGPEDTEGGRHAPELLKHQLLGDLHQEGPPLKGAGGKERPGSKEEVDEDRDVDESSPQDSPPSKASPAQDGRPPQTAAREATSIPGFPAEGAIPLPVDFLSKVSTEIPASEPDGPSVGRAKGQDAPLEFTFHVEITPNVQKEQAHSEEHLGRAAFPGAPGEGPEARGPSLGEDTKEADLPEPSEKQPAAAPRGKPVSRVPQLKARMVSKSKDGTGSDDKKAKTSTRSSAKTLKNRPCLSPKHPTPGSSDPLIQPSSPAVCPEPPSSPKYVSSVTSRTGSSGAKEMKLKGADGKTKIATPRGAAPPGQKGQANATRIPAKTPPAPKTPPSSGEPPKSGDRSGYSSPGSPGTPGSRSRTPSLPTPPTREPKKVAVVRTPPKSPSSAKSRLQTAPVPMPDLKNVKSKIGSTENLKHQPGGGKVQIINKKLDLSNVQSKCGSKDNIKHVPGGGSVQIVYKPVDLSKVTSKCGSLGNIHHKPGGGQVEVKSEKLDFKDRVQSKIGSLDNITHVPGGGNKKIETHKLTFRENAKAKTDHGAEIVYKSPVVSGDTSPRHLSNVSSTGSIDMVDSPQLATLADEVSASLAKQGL
How it was run: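 Heparin (20 uM) drove fibril formation of recombinant tau K18 P301L, 15 uM unlabeled with 0.24 uM Alexa 594 label, for 6 hr at 37 C in 100 mM sodium acetate pH 7. Fluorescence polarization (555/632 nm) read 1 hr after 30 uM ThT.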
Also: nearly all actives have a fitted effect of over 55% in size.
Potency is read from the fitted curve at half-maximal effect; tags tell the direction and shape of the fitted curve.

`CCCCNC(=O)c1onc(CSc2ccccc2F)c1C(=O)O` was tested. Which Potency did it give?
Its Potency is “inactive”.

With `O=C(CSc1nc(-c2cccc(F)c2)[nH]c1-c1ccccc1)Nc1ccc2c(c1)OCCO2` as the compound, how does the Potency read?
Its Potency is inconclusive: 39.8 µM [inhibitor, single point].

For `Cc1cccc(OCc2ccc(-c3nc(C#N)c(NCc4cccnc4)o3)o2)c1`, which Potency is on record?
Its Potency is inconclusive: 7.94 µM [activator, partial curve].

With `CC1CN(S(=O)(=O)c2ccc(NC(=O)c3cc(-c4ccccc4O)n[nH]3)cc2)CC(C)O1` (stereo not drawn) as the compound, how does the Potency read?
The Potency was inconclusive: 7.08 µM [inhibitor, partial curve].

How did the Potency turn out when `COc1ccccc1C(=O)Nc1nc(-c2cccs2)c(NC(C)=O)s1` was run?
Its Potency is inconclusive: 44.7 µM [inhibitor, single point].

Which Potency does the source give for `COc1ccc(-n2c(N)c(C(=O)Nc3c(C)n(C)n(-c4ccccc4)c3=O)c3nc4ccccc4nc32)cc1` here?
The Potency was “inactive”.

How did the Potency turn out when `CCc1ccc(NC(=O)c2cnn(-c3ccccc3)c2C)cc1` was run?
The Potency was “inactive”.

With `O=C(CN1CCN(CC(=O)Nc2ccccc2C(F)(F)F)CC1)Nc1ccccc1F` as the compound, how does the Potency read?
Its Potency is “inactive”.

With `O=S(=O)(c1ccc2ccccc2c1)N1CCN(C(=S)Nc2ccccc2F)CC1` as the compound, how does the Potency read?
Its Potency is inconclusive: 17.8 µM [inhibitor, partial curve].

How did the Potency turn out when `Cc1c(Cl)cccc1NC(=O)Cn1cc(C(=O)c2cccs2)c2ccccc21` was run?
The Potency was inconclusive: 15.8 µM [inhibitor, partial curve].

For `COc1ccc(C)cc1NC(=O)C(Sc1nnc(-c2cccs2)o1)c1ccccc1` (stereo not drawn), which Potency is on record?
Its Potency is inconclusive: 17.8 µM [inhibitor, partial curve].

With `O=C(Nc1cccc(O)c1)c1noc2c1CCc1ccccc1-2` as the compound, how does the Potency read?
The Potency was inconclusive: 20 µM [inhibitor, single point] and inconclusive: 17.8 µM [inhibitor, partial curve].

With `C1CSC2(N1)C1CC3CC(C1)CC2C3` (stereo not drawn) as the compound, how does the Potency read?
Its Potency is inconclusive: 20 µM [inhibitor, partial curve].

How did the Potency turn out when `O=C(Nc1c2c(nn1-c1ccccc1)CS(=O)C2)c1ccc(S(=O)(=O)N2CCOCC2)cc1` (stereo not drawn) was run?
The Potency was “inactive”.

With `O=C(NCc1cccc(Cl)c1)c1ccc(S(=O)(=O)Nc2cccc(C(F)(F)F)c2)cc1` as the compound, how does the Potency read?
The Potency was inconclusive: 17.8 µM [inhibitor, partial curve].

Which Potency does the source give for `COCCNC(=O)CC(=O)N/N=C/c1ccc(C(=O)OC)cc1` here?
The Potency was inconclusive: 8.91 µM [inhibitor, single point].

`O=C(Nc1ccc(C(=O)N2CCOCC2)cc1)Nc1cccc(Cl)c1` was tested. Which Potency did it give?
Its Potency is inconclusive: 25.1 µM [inhibitor, single point].

For `COc1ccc2nc(N3CCC(C)CC3)c(C#N)cc2c1`, which Potency is on record?
The Potency was inconclusive: 17.8 µM [inhibitor, single point].

With `Cc1ccc(NC(=O)c2ccc(N3CCOCC3)c([N+](=O)[O-])c2)cc1S(=O)(=O)N1CCOCC1` as the compound, how does the Potency read?
Its Potency is inconclusive: 28.2 µM [inhibitor, single point].

With `COc1ccc(OC)c(-c2c3cc(O)c(=O)cc-3oc3cc(O)c(O)cc23)c1` as the compound, how does the Potency read?
Its Potency is active: 15.8 µM.

With `Cc1ccc(Cl)cc1NC(=O)Cn1c(=O)n(Cc2ccc(C(=O)NCc3ccc4c(c3)OCO4)cc2)c(=O)c2ccccc21` as the compound, how does the Potency read?
The Potency was inconclusive: 22.4 µM [inhibitor, partial curve].

How did the Potency turn out when `Nc1nc(SCc2ccc(Cl)cc2Cl)ns1` was run?
The Potency was inconclusive: 31.6 µM [inhibitor, single point].

How did the Potency turn out when `COc1cccc(-c2nc(-c3ccc4c(c3)NC(=O)CO4)cs2)c1` was run?
The Potency was inconclusive: 8.91 µM [inhibitor, full curve].

Which Potency does the source give for `CCOc1ccc(C(=O)OCC(=O)Nc2ccc(SC(F)F)cc2)cc1OCC` here?
The Potency was inconclusive: 44.7 µM [inhibitor, single point].

`CCN(CC)c1ccc(/C=N/NC(=O)Cc2nnc(NC(=O)Nc3ccccc3)s2)cc1` was tested. Which Potency did it give?
The Potency was “inactive”.

For `COc1ccc(Br)cc1CNc1ccc(O)cc1`, which Potency is on record?
Its Potency is active: 25.1 µM.

Which Potency does the source give for `COc1cccc(NC(=O)CN2CCSc3ccccc32)c1` here?
The Potency was inconclusive: 0.631 µM [activator, partial curve].

Which Potency does the source give for `CC(=O)N1c2c(cc(Br)cc2S(=O)(=O)N2CCN(c3cccc(Cl)c3)CC2)CC1C` (stereo not drawn) here?
Its Potency is “inactive”.

Which Potency does the source give for `O=C(CSc1nnc(C2COc3ccccc3O2)o1)N1CCCC1` (stereo not drawn) here?
Its Potency is “inactive”.

For `Clc1ccc(-c2nnc3n2CCCC3)cc1`, which Potency is on record?
The Potency was “inactive”.

For `N#Cc1c(-c2ccccc2)[nH]c(=S)[nH]c1=O`, which Potency is on record?
Its Potency is “inactive”.

For `O=c1c2cnn(-c3ccc(Cl)cc3)c2ncn1Cc1cccc(C(F)(F)F)c1`, which Potency is on record?
The Potency was “inactive”.

Which Potency does the source give for `Cn1c(=O)c(NCCc2ccccc2)c2c3c(cccc31)C(=O)c1ccccc1-2` here?
The Potency was “inactive”.

With `COc1ccccc1NC(=O)CSc1oc(-c2cccs2)nc1S(=O)(=O)c1ccccc1` as the compound, how does the Potency read?
The Potency was “inactive”.

`O=c1c(Cl)c(Cl)cnn1Cc1nnc(-c2ccc(Cl)cc2)o1` was tested. Which Potency did it give?
Its Potency is inconclusive: 39.8 µM [inhibitor, single point].

`COc1ccc(OC)c2c1C(=O)C(Cl)=C(Cl)C2=O` was tested. Which Potency did it give?
Its Potency is active: 17.8 µM.

For `COc1cc(OC)c(OC)cc1/C=N/N(C)c1ccccc1`, which Potency is on record?
The Potency was inconclusive: 17.8 µM [activator, partial curve].

With `Cc1ccc(CN2C(=O)C3(c4ccccc42)N(c2cccc(C(F)(F)F)c2)C(=O)CS3(=O)=O)cc1` (stereo not drawn) as the compound, how does the Potency read?
The Potency was inconclusive: 10 µM [inhibitor, partial curve].

`Cc1cccc(NC(=O)c2nc[nH]c2C(=O)N[C@@H](Cc2ccccc2)C(=O)OC(C)(C)C)c1` was tested. Which Potency did it give?
The Potency was active: 8.91 µM.

For `CCSC1(SCC)N=C(N)C2(C#N)C(c3ccc(OC)c(OC)c3OC)C12C#N` (stereo not drawn), which Potency is on record?
Its Potency is inconclusive: 6.31 µM [inhibitor, full curve].

With `O=C(CN1C(=O)COc2ccc(S(=O)(=O)N3CCOCC3)cc21)N1CCN(c2ccc(F)cc2)CC1` as the compound, how does the Potency read?
The Potency was “inactive”.

How did the Potency turn out when `CCc1ccc(NC(=O)CSc2nc3n[nH]c(C)c3c(=N)n2-c2cccc(OC)c2)cc1` was run?
The Potency was inconclusive: 17.8 µM [inhibitor, partial curve].

How did the Potency turn out when `CN1CCN(c2ccc(NC(=O)c3ccc(-c4cccc([N+](=O)[O-])c4)o3)cc2)CC1` was run?
The Potency was inconclusive: 14.1 µM [activator, single point].

For `CCOc1ccc(NC(=O)C2CCN(c3nnnn3-c3ccccc3)CC2)cc1`, which Potency is on record?
Its Potency is “inactive”.

With `CCCCOC(=O)c1cccc(NC(=O)c2cc3ccccc3o2)c1` as the compound, how does the Potency read?
Its Potency is inconclusive: 25.1 µM [inhibitor, partial curve].

`CCOc1ccc(C(=O)Nc2cccc(OCc3cc(=O)n4cc(C)sc4n3)c2)cc1` was tested. Which Potency did it give?
Its Potency is inconclusive: 44.7 µM [inhibitor, single point].

`O=C(Nc1ccc(Cl)cc1F)c1cc(S(=O)(=O)NCc2ccc3c(c2)OCO3)ccc1F` was tested. Which Potency did it give?
Its Potency is inconclusive: 0.398 µM [inhibitor, full curve].

With `CN(C)C=Nc1ncc2c3ccccc3n(Cc3ccccc3)c2c1C#N` as the compound, how does the Potency read?
The Potency was inconclusive: 8.91 µM [inhibitor, partial curve].

With `COc1ccc(CCNC2CC(C)N(C)CC2C)cc1OC` (stereo not drawn) as the compound, how does the Potency read?
Its Potency is “inactive”.

Which Potency does the source give for `CCOc1cc(/C=N/N=C(\N)c2nonc2N)cc(Br)c1OCc1cccc2ccccc12` here?
The Potency was inconclusive: 2.51 µM [inhibitor, partial curve].

With `Cc1ccc2cc(CN(c3ccc(C)c(C)c3)S(C)(=O)=O)c(=O)[nH]c2c1` as the compound, how does the Potency read?
The Potency was inconclusive: 3.55 µM [inhibitor, single point].

Which Potency does the source give for `CCOC(=O)c1cc2c(=O)n3ccccc3nc2n(CC2CCCO2)c1=NC(=O)c1ccc(C)cc1` (stereo not drawn) here?
Its Potency is “inactive”.

Which Potency does the source give for `N#Cc1ccc(NC(=O)COC(=O)CSc2nnc(-c3ccc(Cl)cc3)o2)cc1` here?
The Potency was inconclusive: 28.2 µM [inhibitor, partial curve].

How did the Potency turn out when `COc1ccc(CCNC(=O)C23CN(Cc4ccccc4)CC2C(c2ccc([N+](=O)[O-])cc2)=NO3)cc1` (stereo not drawn) was run?
The Potency was inconclusive: 7.94 µM [activator, partial curve].

Which Potency does the source give for `C=CCNC(=S)NNC(=O)c1ccc(=O)n(Cc2ccc(Cl)cc2Cl)c1` here?
Its Potency is “inactive”.

`CN=C(c1ccc(C)cc1)n1c(=S)nc(-c2ccc(C)cc2)n(C)c1=S` was tested. Which Potency did it give?
The Potency was “inactive”.

For `Cc1sc2ncn(CC(=O)N3CCN(c4cccc(Cl)c4)CC3)c(=O)c2c1S(=O)(=O)N1CCN(c2ncccn2)CC1`, which Potency is on record?
Its Potency is “inactive”.

With `COc1cc(/C=C/C(=O)OCC(=O)Nc2ccc(S(=O)(=O)N3CCCC3)cc2)ccc1O` as the compound, how does the Potency read?
Its Potency is inconclusive: 31.6 µM [activator, single point].

With `Cc1ccc(NC(=O)Cn2nc(C)n3cccc3c2=O)c(C)c1` as the compound, how does the Potency read?
The Potency was inconclusive: 14.1 µM [inhibitor, partial curve, poor fit].

Which Potency does the source give for `COc1ccc(OC)c(CCNC(=O)c2cnn(-c3ccccc3Cl)c2C2CCN(C(=O)OC(C)(C)C)CC2)c1` here?
The Potency was “inactive”.

`COc1ccc(Nc2nc3c(S(=O)(=O)c4ccccc4)nnn3c3ccsc23)cc1OC` was tested. Which Potency did it give?
Its Potency is “inactive”.

For `COc1ccc(N2C(=O)C(Cl)=C(Oc3cccc(OC)c3)C2=O)cc1`, which Potency is on record?
The Potency was active: 22.4 µM.

For `NS(=O)(=O)c1ccc(S(=O)(=O)N2CCCC2)cc1`, which Potency is on record?
The Potency was “inactive”.

With `COc1ccc(NC(=O)c2cnc(Nc3ccc(C)c(Cl)c3)c3ccccc23)cc1OC` as the compound, how does the Potency read?
Its Potency is inconclusive: 14.1 µM [inhibitor, partial curve].

How did the Potency turn out when `COc1ccc(-c2nsc(NC(=O)C(C)Oc3ccc(Cl)c(C)c3)n2)cc1` (stereo not drawn) was run?
Its Potency is inconclusive: 28.2 µM [inhibitor, partial curve].

How did the Potency turn out when `O=C(Nc1ccc(S(=O)(=O)N2CCCc3ccccc32)cc1)C1CCCO1` (stereo not drawn) was run?
The Potency was “inactive”.

Which Potency does the source give for `CCOC(=O)c1ccc(NC(=O)COC(=O)c2cccc(Oc3ccccc3)c2)cc1` here?
The Potency was inconclusive: 8.91 µM [inhibitor, partial curve].

How did the Potency turn out when `CC(C)C(=O)Nc1cccc(NC(=S)NC(=O)C(c2ccccc2)c2ccccc2)c1` was run?
The Potency was inconclusive: 31.6 µM [inhibitor, single point].
